{"source": "paper PMC4336329", "about": "(PLoS ONE, 2015)", "note": "Out of some 310,000 compounds screened, about 2,200 (0.71%) showed an effect of 50% or more. The effect is printed as a negative number. This is one part of the list.", "data": [{"target": "human ether-à-go-go-related gene (hERG) potassium channel (human, UniProt Q12809)", "sequence (Q12809 whole entry, looked up)": "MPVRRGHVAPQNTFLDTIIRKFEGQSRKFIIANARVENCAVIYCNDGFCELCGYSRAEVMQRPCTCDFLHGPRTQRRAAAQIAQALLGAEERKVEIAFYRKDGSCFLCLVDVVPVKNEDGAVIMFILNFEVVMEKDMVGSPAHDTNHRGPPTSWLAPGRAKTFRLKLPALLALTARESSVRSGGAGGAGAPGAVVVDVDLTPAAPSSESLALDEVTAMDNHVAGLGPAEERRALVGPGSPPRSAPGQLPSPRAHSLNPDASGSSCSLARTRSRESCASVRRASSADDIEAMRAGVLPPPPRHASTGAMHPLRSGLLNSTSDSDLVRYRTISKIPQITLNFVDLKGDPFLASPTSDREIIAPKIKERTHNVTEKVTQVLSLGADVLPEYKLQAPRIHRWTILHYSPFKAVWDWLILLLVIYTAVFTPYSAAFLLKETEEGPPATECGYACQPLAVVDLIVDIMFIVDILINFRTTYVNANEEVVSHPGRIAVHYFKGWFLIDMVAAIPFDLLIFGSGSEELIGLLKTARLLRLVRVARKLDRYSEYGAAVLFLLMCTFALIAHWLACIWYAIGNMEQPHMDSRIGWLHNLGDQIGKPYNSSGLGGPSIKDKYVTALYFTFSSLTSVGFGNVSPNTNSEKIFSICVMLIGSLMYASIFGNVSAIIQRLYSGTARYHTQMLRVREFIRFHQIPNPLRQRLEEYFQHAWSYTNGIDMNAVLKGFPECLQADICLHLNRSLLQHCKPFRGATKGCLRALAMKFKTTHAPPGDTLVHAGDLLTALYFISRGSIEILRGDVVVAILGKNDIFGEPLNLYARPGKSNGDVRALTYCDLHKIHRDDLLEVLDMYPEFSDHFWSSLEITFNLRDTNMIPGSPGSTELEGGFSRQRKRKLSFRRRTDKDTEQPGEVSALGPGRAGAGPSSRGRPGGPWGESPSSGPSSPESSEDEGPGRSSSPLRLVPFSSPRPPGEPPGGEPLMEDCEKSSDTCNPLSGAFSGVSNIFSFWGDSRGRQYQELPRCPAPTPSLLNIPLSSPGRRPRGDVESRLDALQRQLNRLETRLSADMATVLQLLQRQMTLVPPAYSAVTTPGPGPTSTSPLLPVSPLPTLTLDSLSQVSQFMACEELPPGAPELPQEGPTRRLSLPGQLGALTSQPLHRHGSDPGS", "experiment": "primary screen, population patch clamp on CHO cells stably expressing hERG", "units": {"hERG current change (%, negative = inhibition) at 1uM": "%"}, "values": [{"smiles": "CC(=O)OC[C@H]1O[C@H](C/C=N/O[C@@H](C)c2cn([C@H](CO)Cc3ccccc3)nn2)C=C[C@@H]1OC(C)=O", "hERG current change (%, negative = inhibition) at 1uM": -0.583}, {"smiles": "COc1ccc(Oc2ccc(N/C=C3\\CCCC3=O)cc2)cc1", "hERG current change (%, negative = inhibition) at 1uM": 6.71}, {"smiles": "Cc1c(Cl)c([N+](=O)[O-])nn1CCCC(=O)Nc1cccc(O)c1", "hERG current change (%, negative = inhibition) at 1uM": 3.8}, {"smiles": "N#Cc1c(Nc2ccccc2)c(/C=N/NCCO)c[nH]c1=O", "hERG current change (%, negative = inhibition) at 1uM": 12.4}, {"smiles": "COc1ccc(O[C@H]2C=C[C@@H](c3ccccc3)O[C@@H]2COC(=O)CC/C(C)=N/OC[C@@H](O)COCc2ccco2)cc1", "hERG current change (%, negative = inhibition) at 1uM": 6.31}, {"smiles": "Cc1ccc(NC(=O)C2CCN(c3cnccn3)CC2)cc1", "hERG current change (%, negative = inhibition) at 1uM": 21.4}, {"smiles": "Cc1cccc(N2CCN(C(C)C(=O)N3CCc4ccccc43)CC2)c1C", "note": "(stereo not shown)", "hERG current change (%, negative = inhibition) at 1uM": 19.4}, {"smiles": "CC1CCc2sc(C(=O)NN)cc2C1", "note": "(stereo not shown)", "hERG current change (%, negative = inhibition) at 1uM": 20.4}, {"smiles": "CCCCC(=O)Nc1ccc(NC(=O)c2ccccc2OC)cn1", "hERG current change (%, negative = inhibition) at 1uM": 8.11}, {"smiles": "COc1cc([N+](=O)[O-])ccc1NC(=O)COC(=O)CCOc1ccc(C)cc1", "hERG current change (%, negative = inhibition) at 1uM": 6.35}, {"smiles": "CC(=O)C1[C@H](N(C)C)CC2C3CC=C4CC(O)CC[C@]4(C)C3CC[C@@]21C", "note": "(stereo partly shown)", "hERG current change (%, negative = inhibition) at 1uM": 15.7}, {"smiles": "COC(=O)/C=C1\\SC(=NC(=O)c2cccc([N+](=O)[O-])c2)NC1=O", "hERG current change (%, negative = inhibition) at 1uM": 13.1}, {"smiles": "CC(=O)c1ccc(S(=O)(=O)Nc2cccc(-c3ccc4nncn4n3)c2)cc1", "hERG current change (%, negative = inhibition) at 1uM": 7.25}, {"smiles": "O=C(NCCc1ccccn1)c1cc2ccccc2o1", "hERG current change (%, negative = inhibition) at 1uM": 17}, {"smiles": "Cc1ccc(NC(=O)C2CCC(CNc3c(N4CCC(C)CC4)c(=O)c3=O)CC2)cc1F", "note": "(stereo not shown)", "hERG current change (%, negative = inhibition) at 1uM": 10.6}, {"smiles": "O=C(Nc1ccccc1)c1cc2ccccc2c(=O)s1", "hERG current change (%, negative = inhibition) at 1uM": 16.5}, {"smiles": "O=C(Nc1ccc(S(=O)(=O)Nc2ncccn2)cc1)c1ccccc1Br", "hERG current change (%, negative = inhibition) at 1uM": 5.81}, {"smiles": "Clc1ccc(-n2nnnc2CN2CCCCC2)cc1Cl", "hERG current change (%, negative = inhibition) at 1uM": 8.56}, {"smiles": "CC(=O)C1=C(O)C(=O)N(Cc2ccccc2)C1c1ccc(Br)cc1", "note": "(stereo not shown)", "hERG current change (%, negative = inhibition) at 1uM": 17.2}, {"smiles": "COC1(C2=NCCN2)COc2ccccc2O1.Cl", "note": "(stereo not shown)", "hERG current change (%, negative = inhibition) at 1uM": 14.5}, {"smiles": "COc1ccc(S(=O)(=O)N(C)C)cc1NC(C)C(=O)Nc1cccc(C#N)c1", "note": "(stereo not shown)", "hERG current change (%, negative = inhibition) at 1uM": 3.18}, {"smiles": "CC(=O)Nc1ccc(S(=O)(=O)NCCC(=O)OCCN2C(=O)c3ccccc3C2=O)cc1", "hERG current change (%, negative = inhibition) at 1uM": 13.6}, {"smiles": "Cc1ccc(NC(=O)CN(C)S(=O)(=O)c2cccc3nsnc23)cc1C", "hERG current change (%, negative = inhibition) at 1uM": 16.3}, {"smiles": "CCC(=O)Oc1ccc(C(=O)Nc2ccc3c(c2)OCO3)cc1", "hERG current change (%, negative = inhibition) at 1uM": 12.2}, {"smiles": "Cc1cc(N2CCN(C)CC2)nc2ccc(NC(=O)CCC3CCCC3)cc12", "hERG current change (%, negative = inhibition) at 1uM": -3.69}, {"smiles": "O=C(COc1ccc(S(=O)(=O)N2CCCC2)cc1)N1CCCCC1", "hERG current change (%, negative = inhibition) at 1uM": 14.1}, {"smiles": "Cc1ccc2nc(-c3ccccn3)cc(C(=O)Nc3ccc4c(c3)OCO4)c2c1", "hERG current change (%, negative = inhibition) at 1uM": 7.67}, {"smiles": "Cc1cc(C)cc(NC(=O)CSc2nncn2-c2ccccn2)c1", "hERG current change (%, negative = inhibition) at 1uM": 9.46}, {"smiles": "CCOc1ccc(CCNC(=O)COC(=O)c2ccc(S(C)(=O)=O)cc2)cc1OCC", "hERG current change (%, negative = inhibition) at 1uM": 18.9}, {"smiles": "CCC1CCCCN1C(=O)CCn1c(=O)oc2ccccc21", "note": "(stereo not shown)", "hERG current change (%, negative = inhibition) at 1uM": -5.22}, {"smiles": "COCCNC(=O)c1ccc(Cl)c(S(=O)(=O)Nc2cccc(C)c2C)c1", "hERG current change (%, negative = inhibition) at 1uM": 11.3}, {"smiles": "CCC(C(=O)NCc1cccc(C)c1)n1nc(C)c2c(C)n(-c3ccccc3)nc2c1=O", "note": "(stereo not shown)", "hERG current change (%, negative = inhibition) at 1uM": 2.43}, {"smiles": "O=C(Oc1c(Cl)cc(Cl)c2cccnc12)N1CCOCC1", "hERG current change (%, negative = inhibition) at 1uM": 4.68}, {"smiles": "CSc1ccc(CN(C)C(=O)CSCC(=O)Nc2ccc(C)cc2)cc1", "hERG current change (%, negative = inhibition) at 1uM": -25.2}, {"smiles": "CN(c1ccccc1)S(=O)(=O)c1ccc(C(=O)N2CCCC(C(F)(F)F)C2)cc1", "note": "(stereo not shown)", "hERG current change (%, negative = inhibition) at 1uM": 6.95}, {"smiles": "Cc1ccnc(NC(=O)CCC(=O)c2cc(C)sc2C)c1", "hERG current change (%, negative = inhibition) at 1uM": 7.62}, {"smiles": "CCCn1c(SCC(=O)Nc2cc(C)on2)nc2c1c(=O)n(C)c(=O)n2C", "hERG current change (%, negative = inhibition) at 1uM": -0.423}, {"smiles": "C/C(=N\\NC(=O)C(NC(=O)c1ccccc1)C(C)C)c1ccccc1", "note": "(stereo not shown)", "hERG current change (%, negative = inhibition) at 1uM": 16.7}, {"smiles": "COc1cc(OC)c2ccc(=O)oc2c1C(CC(=O)N1CCOCC1)c1ccc2c(c1)OCO2", "note": "(stereo not shown)", "hERG current change (%, negative = inhibition) at 1uM": 8.57}, {"smiles": "COc1ccc(NC(=O)CCNS(=O)(=O)c2cccc3nonc23)cc1", "hERG current change (%, negative = inhibition) at 1uM": 8.35}, {"smiles": "O=C(Nc1sc2c(c1C(=O)NCC1CCCO1)CCCC2)c1cccs1", "note": "(stereo not shown)", "hERG current change (%, negative = inhibition) at 1uM": 9.86}, {"smiles": "O=C(CO/N=C/c1c(Cl)cccc1Cl)NNC(=O)c1ccc(Cl)cc1", "hERG current change (%, negative = inhibition) at 1uM": 1.21}, {"smiles": "CCOc1ccc(CN(C(=O)c2oc3cc(C)ccc3c2C)C2CCS(=O)(=O)C2)cc1", "note": "(stereo not shown)", "hERG current change (%, negative = inhibition) at 1uM": -0.583}]}]}
